# Measured values: PubChem BioAssay (Tox21)
# Several values for one entry are separate records, joined by “and”; a condition that tells them apart may be missing. Equal entries are not always repeated. The inconclusive results got no clear call from the source; some entries with a clear call stand among them for comparison. Potencies of inconclusive entries are doubtful fits and often do not repeat. Some compounds were tested as several samples or in several runs, with calls that do not always agree. Activity calls are given as the source filed them. The call rests on the fitted dose curve; in most records, active means well fitted cell-killing curve with a large enough effect in the repeat runs; inconclusive means weak or mixed curves, or effect the other way; inactive means flat fitted curve, though single readings scatter.
# Test: qHTS RealTime-Glo MT Cell Viability Assay in HEK293 cells - 32 hour (AID 1224868); further: nearly all actives have a fitted effect of over 50% in size
# Conditions: RealTime-Glo luminescence; series mostly up to 76.8 µM
# Summary of the method: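 Viability tracked continuously by luminescence as live cells reduce a prosubstrate for NanoLuc; HEK293 cells preincubated 5 h, compound-treated at 37 C, and read at 0, 8, 16, 24, 32 and 40 h.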
# Potency means the concentration at half of the fitted maximal effect; tags describe the fitted curve by direction and shape.
row,Compound,Potency
1,CC(C)[C@@H](Nc1ccc(C(F)(F)F)cc1Cl)C(=O)OC(C#N)c1cccc(Oc2ccccc2)c1 (stereo partly specified),inactive
2,C=CCC1=C(C)[C@@H](OC(=O)[C@@H]2[C@@H](C=C(C)C)C2(C)C)CC1=O,active: 13.8 µM
3,NC1CCC(CC2CCC(N)CC2)CC1 (stereo unspecified),"inconclusive: 54 µM [cytotoxic, partial curve, poor fit]"
4,CCCCCCCCCCCCCCn1cc[n+](C)c1,"inconclusive: 54.9 µM [cytotoxic, single point]"
5,c1csc(-c2ccc(-c3cccs3)s2)c1,inactive
6,CCCCCCCCCCCCCCCCCCn1cc[n+](C)c1,active: 7.72 µM
7,CCCN(CCC)CCc1c[nH]c2ccccc12,inactive
8,C[C@]12C=CC3=C4CCC(=O)C=C4CC[C@H]3[C@@H]1CC[C@@H]2O,"inconclusive: 61.2 µM [cytotoxic, partial curve, poor fit] and inactive"
9,CCCCC/C=C\C/C=C\C/C=C\C/C=C\CCCC(=O)NCC(=O)O,inactive
10,CCCCCC[n+]1ccccc1,"inconclusive: 15.5 µM [cytotoxic, partial curve]"
11,[Cd+2].[Cl-].[Cl-],"inconclusive: 62.2 nM [rising, full curve] and inconclusive: 77.6 nM [rising, full curve]"
